Data published in PubChem BioAssay AID1030 (National Center for Advancing Translational Sciences (NCATS), 2008).
In all, about 220,000 compounds went through this assay and about 16,000 (7.3%) were called active. The inconclusive results got no clear call from the source; some entries with a clear call stand among them for comparison. The call rests on the fitted dose curve; in most records, active means well fitted inhibition curve with a large enough effect (not every such curve was filed as active); inconclusive means small, poorly fitted or top-dose-only effect, or another doubt; inactive means no such curve, though single readings can be large or run the other way. Potencies of inconclusive entries are left out as doubtful fits.

target: Aldehyde dehydrogenase 1A1 (Homo sapiens) (UniProt P00352); assay: qHTS Assay for Inhibitors of Aldehyde Dehydrogenase 1 (ALDH1A1); settings: Purified ALDH1A1, NADH fluorescence, propionaldehyde substrate; series mostly up to 75.3 µM
Chain of UniProt P00352 (P00352 whole entry, looked up): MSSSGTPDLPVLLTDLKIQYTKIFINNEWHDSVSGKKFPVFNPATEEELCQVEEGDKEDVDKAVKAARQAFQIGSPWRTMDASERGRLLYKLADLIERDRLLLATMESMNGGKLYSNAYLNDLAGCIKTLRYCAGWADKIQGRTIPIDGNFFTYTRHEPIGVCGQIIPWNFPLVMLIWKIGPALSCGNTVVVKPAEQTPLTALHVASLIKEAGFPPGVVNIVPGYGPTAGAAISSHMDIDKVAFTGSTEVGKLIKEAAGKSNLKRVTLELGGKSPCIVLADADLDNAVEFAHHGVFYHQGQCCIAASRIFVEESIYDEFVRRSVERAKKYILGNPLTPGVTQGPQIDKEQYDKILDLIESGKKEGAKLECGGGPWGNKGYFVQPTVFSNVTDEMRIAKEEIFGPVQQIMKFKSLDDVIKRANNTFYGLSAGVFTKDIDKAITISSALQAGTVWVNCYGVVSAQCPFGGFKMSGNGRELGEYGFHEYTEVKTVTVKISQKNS
Potency means the concentration at half of the fitted maximal effect; tags describe the fitted curve by direction and shape.

Row | Compound | Potency
1 | C/C(=C\C(=O)c1ccc(Br)cc1)N1CCCCC1 | active: 25.1 µM
2 | O=C(C1=C(O)C(=O)N(CCN2CCOCC2)C1c1cccnc1)c1cc2ccccc2o1 (stereo not drawn) | active: 35.5 µM
3 | CCCCSc1nc2sc3c(c2c(=O)[nH]1)CCC3 | inconclusive [inhibitor, partial curve, poor fit]
4 | Cc1ccc(C)c(NC(=O)CSc2nnc(CCCCCNC(=O)OC(C)(C)C)o2)c1 | active: 9.46 µM
5 | CCOC(=O)C1CCCN(c2cc(C)nc3cc(-c4ccc(F)cc4)nn23)C1 (stereo not drawn) | inactive
6 | COc1ccc(OCc2nnc(SCC(=O)c3ccccc3)o2)cc1 | inconclusive [inhibitor, single point]
7 | CC(CO)NCC12CC3CC(CC(C3)C1)C2 (stereo not drawn) | inactive
8 | CC1(C)CC(=O)C(C(C2=C(O)CC(C)(C)CC2=O)c2ccc(Br)s2)C(=O)C1 (stereo not drawn) | active: 3.55 µM
9 | Cc1cc(O)c(C=O)c2c1C(=O)Oc1c(COC(=O)/C=C/C(=O)O)c(O)c(C(=O)O)c(C)c1O2 | active: 4.47 µM
10 | Cc1ccsc1C(=O)C1CCCN(Cc2cc(F)ccc2-n2cccn2)C1 (stereo not drawn) | inactive
11 | O=C1c2ccccc2N2C(=O)c3ccccc3[C@H]2N1c1ccccc1 | inactive
12 | Cc1csc(NC(=O)CSc2nnc(Cn3c(=O)sc4ccccc43)n2-c2ccccc2)n1 | inconclusive [inhibitor, full curve]
13 | CCOC(=O)Nc1ccc2c(c1)Nc1ccccc1S2 | inconclusive [inhibitor, partial curve]
14 | COC(=O)C1=C(C)Nc2c(c(=O)n(C)c(=O)n2C)C1c1ccc(C)cc1 (stereo not drawn) | inactive
15 | Cc1ccc(NC(=O)CN(C)C(=O)CCCN2C(=O)c3ccccc3C2=O)cc1 | inconclusive [inhibitor, single point]
16 | Cc1nn(CCCC(=O)N2CCN(c3ccc(F)cc3)CC2)c(C)c1[N+](=O)[O-] | inconclusive [inhibitor, single point]
17 | COC(=O)c1cccc(-n2c(CCC(=O)O)ccc2-c2cccs2)c1 | active: 3.98 µM
18 | COc1ccc2cc(C(=O)C3CCCN(C(=O)CCc4ccccn4)C3)ccc2c1 (stereo not drawn) | inconclusive [inhibitor, partial curve]
19 | COc1ccc2[nH]c(=O)c(CN(Cc3cccs3)S(=O)(=O)c3cccc4nsnc34)cc2c1 | inconclusive [inhibitor, single point]
20 | Cc1cc(/C=C2/SC(=O)N(CC(=O)OC(C)C)C2=O)c(C)n1C | inconclusive [inhibitor, single point]
21 | CCOc1ccc(C(=O)Nc2ccc(NC(=O)c3ccco3)c(Cl)c2)cc1Br | inconclusive [inhibitor, single point]
22 | CCOc1ccccc1C(=O)NC1CCN(Cc2nnnn2C2CCCC2)CC1 | active: 28.2 µM
23 | O=C(CCCN1C(=O)c2cccc3cccc(c23)C1=O)N1CCN(c2ccccn2)CC1 | inactive
24 | O=C(NNC(=O)c1cccnc1SCc1cccc([N+](=O)[O-])c1)c1cccnc1 | inconclusive [inhibitor, single point]
25 | C#Cc1cccc(Nc2ncnc3cc(OC)c(OC)cc23)c1 | inconclusive [inhibitor, single point]

Row | Compound | Potency
26 | O=C(NCc1ccco1)c1ccc(Br)s1 | inconclusive [inhibitor, single point]
27 | COc1ccc(NC(=O)CSc2nnc(NC(=O)c3ccco3)s2)cc1 | inconclusive [inhibitor, single point]
28 | CSc1nc(-c2ccco2)nn1S(=O)(=O)c1ccccc1 | active: 14.1 µM
29 | Cc1ccc(C)c(S(=O)(=O)N2CCN(C(C(=O)Nc3ccc(F)cc3)c3ccccc3)CC2)c1 (stereo not drawn) | active: 11.2 µM
30 | CC(C)c1ccc(NC(=O)C(c2ccccc2)N(C)C(=O)c2cnccn2)cc1 (stereo not drawn) | active: 10 µM
31 | CN1CCN(C(=S)Nc2cc([N+](=O)[O-])ccc2Cl)CC1 | active: 20 µM
32 | Cc1cccc(NC(=O)c2ccccc2Br)n1 | inconclusive [inhibitor, single point]
33 | COc1cc(/C=N/NC(=O)CCn2c3ccccc3c3ccccc32)cc(OC)c1OC | inconclusive [inhibitor, single point]
34 | Cc1ccc(C(C(=O)Nc2ccc(C(C)C)cc2)N(C)C(=O)c2ccc(=O)[nH]c2)cc1 (stereo not drawn) | inconclusive [inhibitor, single point]
35 | Cc1cccc(N=C2NC(=O)/C(=C/C=C/c3ccco3)S2)c1 | inconclusive [inhibitor, single point]
36 | CN(C(=O)CSCC(=O)O)C1CCCCC1 | active: 2 µM
37 | CCCn1c(/N=C/c2ccc3c(c2)OCO3)nc2ccccc21 | active: 14.1 µM
38 | COC(=O)c1c(NC(=O)C(C)(C)C)sc2c1C(C(=O)OC)CC2 (stereo not drawn) | inconclusive [inhibitor, partial curve]
39 | CN(C)C(=O)COC(=O)c1ccccc1Nc1ccc(SC(F)F)cc1 | inconclusive [inhibitor, single point]
40 | O=C(c1cc(-c2ccco2)on1)N1CCCc2ccccc21 | active: 8.91 µM
41 | FC(F)(F)c1cc(-c2ccco2)nc(-n2nc(C(F)(F)F)cc2C2CC2)n1 | inconclusive [inhibitor, single point]
42 | Cc1cccc(C)c1-n1cccc1/C=C1/C(=N)N2C(=NC1=O)SN=C2S(C)(=O)=O | inconclusive [inhibitor, single point]
43 | O=C(CSCc1ccc([N+](=O)[O-])cc1)NC1CC1 | inactive
44 | Cc1cc(=O)[nH]c(SCC(=O)Nc2cccc3ccccc23)c1C#N | inconclusive [inhibitor, partial curve]
45 | O=C(CSc1nc2ccc(Cl)cc2[nH]1)Nc1ccc2c(c1)CCC2 | inconclusive [inhibitor, single point]
46 | CC1=NNC(=O)C1C(c1ccccc1)C1C(=O)NN=C1C (stereo not drawn) | active: 31.6 µM
47 | COc1ccccc1N1CCN(CC(=O)c2ccc3ccn(C(C)=O)c3c2)CC1 | inconclusive [inhibitor, partial curve]
48 | CC(C(=O)N1c2ccc(F)cc2CCC1C)N1C(=O)c2ccccc2C1=O (stereo not drawn) | inconclusive [inhibitor, single point]
49 | COc1ccc(C(=O)N2CCCC(c3nc(-c4ccc(OC)c(OC)c4)no3)C2)c(OC)c1 (stereo not drawn) | inactive
50 | Nc1c(C(=O)NCc2ccco2)c2nc3ccccc3nc2n1CCc1ccc(F)cc1 | inconclusive [inhibitor, partial curve]

Row | Compound | Potency
51 | CS(=O)(=O)N(CC(=O)Nc1ccccc1Cl)c1ccc(Cl)cc1 | inactive
52 | CCOC(=O)N1CCC(NCCNC(=O)c2cccs2)CC1 | inconclusive [inhibitor, single point]
53 | O=C(NC(Cc1ccccc1)C(=O)O)C1CCCCC1 (stereo not drawn) | inactive
54 | Cc1ccccc1NS(=O)(=O)c1ccc(C2CNC(=O)C2)cc1 (stereo not drawn) | inconclusive [inhibitor, single point]
55 | Cn1cc(CN2CCN(Cc3ccccc3)CC2)c(-c2cccc(Cl)c2)n1 | inconclusive [inhibitor, single point]
56 | CC(/C=N/NC(=O)Cn1cnc2ccccc21)=C\c1ccccc1 | inconclusive [inhibitor, single point]
57 | COC(=O)CN1C(=O)N/C(=C/c2ccc(OC)c(C)c2OC)C1=O | active: 6.31 µM
58 | O=C(c1ccco1)N1CCN(CC(=O)N(C2CCCCC2)C2CCS(=O)(=O)C2)CC1 (stereo not drawn) | inconclusive [inhibitor, single point]
59 | COc1ccccc1-c1nnc(SCC(=O)Nc2ccccc2)o1 | inconclusive [inhibitor, partial curve, poor fit]
60 | COc1cc(OC)cc(C(=O)N2CCN(Cc3ccccc3C(F)(F)F)CC2)c1 | active: 14.1 µM
61 | COc1ccc(CC(=O)Nc2nc3ccc(F)cc3s2)cc1S(=O)(=O)N1CCOCC1 | active: 20 µM
62 | CCc1ccc(N(C)S(=O)(=O)c2ccc3[nH]cc(C(=O)NCCN4CCOCC4)c(=O)c3c2)cc1 | active: 22.4 µM
63 | O=C(Cc1c(F)cccc1Cl)Nc1ncc([N+](=O)[O-])s1 | inconclusive [inhibitor, single point]
64 | N#CC(C#N)=Cc1cccn1-c1ccc(S(N)(=O)=O)cc1 | inconclusive [inhibitor, single point]
65 | Cc1nn(-c2ccc(F)cc2)c(C)c1NS(=O)(=O)c1ccc(Cl)cc1 | inactive
66 | O=C(O)CSc1nnc(COc2ccc([N+](=O)[O-])cc2)n1-c1ccccc1 | active: 20 µM
67 | Cc1nc2ccc(NC(=S)N3CCCC3)cc2nc1C | inconclusive [inhibitor, single point]
68 | C/C(=N\Nc1ccccn1)c1ccc(S(=O)(=O)NCc2ccco2)cc1 | inactive
69 | Cn1c(SCC(=O)N2CCN(c3ccccc3)CC2)nnc1-c1ccccc1 | active: 7.94 µM
70 | O=C1C2ON(c3ccccc3)C(c3ccncc3)C2C(=O)N1c1ccc(N2CCOCC2)cc1 (stereo not drawn) | inactive
71 | CCCCNC(=O)c1ccccc1NC(=O)CCSc1ccccc1 | inconclusive [inhibitor, partial curve]
72 | O=S(=O)(c1ccccc1)N1CCC[C@@]2(CCN(Cc3nccs3)C2)C1 | inactive
73 | COC(=O)[C@@]1(Cc2ccc(F)cc2)[C@H]2c3cc(C(=O)N(C)C)n(Cc4ccc(C)c(F)c4F)c3C[C@H]2CN1C(=O)c1ccccc1 | inactive
